According to paper PMC5892938:
The other results are listed elsewhere or left out. At the low end of the ranking the order means little.

Target: GST-SBP-SLBP (stem-loop binding protein) (UniProt Q14493)
Assay: targeted RNA Bind-n-Seq;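 also: DESeq read counts versus GST-SBP nonspecific binding control pulldown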
Details: RBNS binding buffer: 25 mM Tris pH 7.5, 150 mM KCl, 3 mM MgCl2, 0.1% Tween, 0.5 mg/mL BSA, 1 mM DTT; 27 nM protein, 750 pM RNA pool; temperature not stated; high values mean tight binding

Sequence | binding signal (log2 fold change)
GGUCACGUCUCAAUCAACUCUUUCUCCAGGGAAAUCCCUGGUAAUUUCAACAGCUCGCAGUCAAG | -0.1
GGUCACGUCUCAAUCAACUCCUCAGAGGGGGGGAAAACCCCUUUACCCUCAAUAUCAACAGCUCGCAGUCAAG | 0.394
GGUCACGUCUCAAUCAACUCAAUCGAGGGGGGGAAAACCCCUUUACCCUCAAUCUCAACAGCUCGCAGUCAAG | -0.343
GGUCACGUCUCAAUCAACUCAUCGUCCAGGGAAAACCCUGGUAAUUUCAACAGCUCGCAGUCAAG | 0.159
GGUCACGUCUCAAUCAACUCUUCCCCAGGAGUUUUCUCCUGCAUACUCAACAGCUCGCAGUCAAG | 0.165
GGUCACGUCUCAAUCAACUCUUCUCCCAGGGAAAUCCCUGGUAUAUUCAACAGCUCGCAGUCAAG | 0.027
GGUCACGUCUCAAUCAACUCAAUCUCCAGGGAAAGCCCUGGCUUUCUCAACAGCUCGCAGUCAAG | 0.0528
GGUCACGUCUCAAUCAACUCUUCUUCAGGAGUUUACUCCUGUAAUGUCAACAGCUCGCAGUCAAG | -0.168
GGUCACGUCUCAAUCAACUCAUCCUCCAGGGAAAGCCCUGGUUAUUUCAACAGCUCGCAGUCAAG | -0.0676
GGUCACGUCUCAAUCAACUCUAUUCCAGGAGUUUACUCCUGCAAACUCAACAGCUCGCAGUCAAG | 0.117
GGUCACGUCUCAAUCAACUCAUUUUCAGGAGUUUGCUCCUGUUAUUUCAACAGCUCGCAGUCAAG | -0.0335
GGUCACGUCUCAAUCAACUCCCCAGAGGGGGGGAAAACCCCUUUACCCUCAUAAUCAACAGCUCGCAGUCAAG | 0.276
GGUCACGUCUCAAUCAACUCCAACGAGGGGGGGAAAACCCCUUUACCCUCAUCUUCAACAGCUCGCAGUCAAG | -0.454
GGUCACGUCUCAAUCAACUCUUUUUCAGGAGUUUUCUCCUGUUAUCUCAACAGCUCGCAGUCAAG | 0.0693
GGUCACGUCUCAAUCAACUCAUUUCCCAGGGAAAGCCCUGGCAUACUCAACAGCUCGCAGUCAAG | -0.277
GGUCACGUCUCAAUCAACUCUUCCCCCAGGGAAAGCCCUGGCAAUCUCAACAGCUCGCAGUCAAG | 0.0922
GGUCACGUCUCAAUCAACUCUUUCCCAGGAGUUUUCUCCUGCAUAUUCAACAGCUCGCAGUCAAG | 0.04
GGUCACGUCUCAAUCAACUCUAUUCCCAGGGAAACCCCUGGUAUUCUCAACAGCUCGCAGUCAAG | 0.172
GGUCACGUCUCAAUCAACUCCUAAGAGGGGGGGAAAACCCCUUUGCCCUCAUAAUCAACAGCUCGCAGUCAAG | 0.118
GGUCACGUCUCAAUCAACUCUUUAGAGGGGGGGAAAACCCCUUUGCCCUCACAUUCAACAGCUCGCAGUCAAG | 0.0244
GGUCACGUCUCAAUCAACUCAACGGAGGGGGGGAAAACCCCUUUACCCUCAAUUUCAACAGCUCGCAGUCAAG | -0.0687
GGUCACGUCUCAAUCAACUCAUUUUCAGGAGUUUCCUCCUGUUAUUUCAACAGCUCGCAGUCAAG | -0.0345
GGUCACGUCUCAAUCAACUCAUCAGAGGGGGGGAAAACCCCUUUGCCCUCACUAUCAACAGCUCGCAGUCAAG | 0.0481
GGUCACGUCUCAAUCAACUCAAUCUCAGGAGUUUUCUCCUGCUUUCUCAACAGCUCGCAGUCAAG | -0.0354
GGUCACGUCUCAAUCAACUCAAUCUCAGGAGUUUUCUCCUGUAUUUUCAACAGCUCGCAGUCAAG | -0.0806

Sequence | binding signal (log2 fold change)
GGUCACGUCUCAAUCAACUCUUUUUCAGGAGUUUUCUCCUGCUUAUUCAACAGCUCGCAGUCAAG | -0.187
GGUCACGUCUCAAUCAACUCUUCCUCCAGGGAAAGCCCUGGUAUUCUCAACAGCUCGCAGUCAAG | -0.237
GGUCACGUCUCAAUCAACUCUUACGAGGGGGGGAAAACCCCUUUACCCUCUUCUUCAACAGCUCGCAGUCAAG | 0.477
GGUCACGUCUCAAUCAACUCUAUCUCAGGAGUUUUCUCCUGUAAUCUCAACAGCUCGCAGUCAAG | -0.0793
GGUCACGUCUCAAUCAACUCAUUCUCCAGGGAAAGCCCUGGUAUACUCAACAGCUCGCAGUCAAG | 0.00425
GGUCACGUCUCAAUCAACUCUAUCUCCAGGGAAAGCCCUGGCAUAUUCAACAGCUCGCAGUCAAG | -0.0756
GGUCACGUCUCAAUCAACUCAAUCUCAGGAGUUUUCUCCUGUAUAGUCAACAGCUCGCAGUCAAG | 0.0274
GGUCACGUCUCAAUCAACUCUAUCUCCAGGGAAAUCCCUGGCAAAUUCAACAGCUCGCAGUCAAG | 0.274
GGUCACGUCUCAAUCAACUCACAAGAGGGGGGGAAAACCCCUUUACCCUCACCGUCAACAGCUCGCAGUCAAG | 0.0471
GGUCACGUCUCAAUCAACUCCUACGAGGGGGGGAAAACCCCUUUACCCUCACAUUCAACAGCUCGCAGUCAAG | 0.179
GGUCACGUCUCAAUCAACUCUAUUCCCAGGGAAACCCCUGGUUUUUUCAACAGCUCGCAGUCAAG | -0.166
GGUCACGUCUCAAUCAACUCAUUCUCAGGAGUUUCCUCCUGUUAUUUCAACAGCUCGCAGUCAAG | -0.0361
GGUCACGUCUCAAUCAACUCAUUUCCAGGAGUUUUCUCCUGUUAUUUCAACAGCUCGCAGUCAAG | -0.0387
GGUCACGUCUCAAUCAACUCUUCCUCAGGAGUUUUCUCCUGUAAUGUCAACAGCUCGCAGUCAAG | 0.1
GGUCACGUCUCAAUCAACUCAAUUUCAGGAGUUUGCUCCUGCUAUUUCAACAGCUCGCAGUCAAG | 0.00431
GGUCACGUCUCAAUCAACUCUUCUUCCAGGGAAAACCCUGGCAAUUUCAACAGCUCGCAGUCAAG | 0.0661
GGUCACGUCUCAAUCAACUCUAUUCCCAGGGAAAGCCCUGGUAAAUUCAACAGCUCGCAGUCAAG | -0.044
GGUCACGUCUCAAUCAACUCAAUCCCCAGGGAAACCCCUGGUAUUCUCAACAGCUCGCAGUCAAG | 0.217
GGUCACGUCUCAAUCAACUCUACAGAGGGGGGGAAAACCCCUUUACCCUCACUUUCAACAGCUCGCAGUCAAG | -0.272
GGUCACGUCUCAAUCAACUCCCAAGAGGGGGGGAAAACCCCUUUACCCUCACUUUCAACAGCUCGCAGUCAAG | -0.0411
GGUCACGUCUCAAUCAACUCAUAAGAGGGGGGGAAAACCCCUUUGCCCUCCAUUUCAACAGCUCGCAGUCAAG | 0.125
GGUCACGUCUCAAUCAACUCUUCGUCAGGAGUUUACUCCUGUUAUUUCAACAGCUCGCAGUCAAG | 0.027
GGUCACGUCUCAAUCAACUCAACUCCAGGAGUUUCCUCCUGCUAUUUCAACAGCUCGCAGUCAAG | -0.0546
GGUCACGUCUCAAUCAACUCAUCCCCCAGGGAAAUCCCUGGUUAAUUCAACAGCUCGCAGUCAAG | 0.368
GGUCACGUCUCAAUCAACUCAUCCUCAGGAGUUUGCUCCUGUUUUUUCAACAGCUCGCAGUCAAG | 0.00205

Sequence | binding signal (log2 fold change)
GGUCACGUCUCAAUCAACUCUAUGGAGGGGGGGAAAACCCCUUUACCCUCAAACUCAACAGCUCGCAGUCAAG | -0.0165
GGUCACGUCUCAAUCAACUCUUUCCCAGGAGUUUACUCCUGCUUAUUCAACAGCUCGCAGUCAAG | 0.112
GGUCACGUCUCAAUCAACUCUUCGUCCAGGGAAAUCCCUGGCUAUUUCAACAGCUCGCAGUCAAG | 0.103
GGUCACGUCUCAAUCAACUCAUUCUCAGGAGUUUACUCCUGUUUUCUCAACAGCUCGCAGUCAAG | 0.0629
GGUCACGUCUCAAUCAACUCCCCAGAGGGGGGGAAAACCCCUUUACCCUCGUUUUCAACAGCUCGCAGUCAAG | 0.202
GGUCACGUCUCAAUCAACUCAUUCUCAGGAGUUUACUCCUGCAUUCUCAACAGCUCGCAGUCAAG | 0.256
GGUCACGUCUCAAUCAACUCCUUCGAGGGGGGGAAAACCCCUUUACCCUCAAUCUCAACAGCUCGCAGUCAAG | -0.103
GGUCACGUCUCAAUCAACUCUUUUCCAGGAGUUUCCUCCUGUAAUUUCAACAGCUCGCAGUCAAG | 0.0545
GGUCACGUCUCAAUCAACUCAUUCCCAGGAGUUUACUCCUGUUUACUCAACAGCUCGCAGUCAAG | 0.0672
GGUCACGUCUCAAUCAACUCAAUGUCAGGAGUUUUCUCCUGUUUUCUCAACAGCUCGCAGUCAAG | -0.141
GGUCACGUCUCAAUCAACUCCCUAGAGGGGGGGAAAACCCCUUUGCCCUCAACAUCAACAGCUCGCAGUCAAG | -0.136
GGUCACGUCUCAAUCAACUCAUCCCCAGGAGUUUACUCCUGCAUUCUCAACAGCUCGCAGUCAAG | 0.181
GGUCACGUCUCAAUCAACUCAAUUUCAGGAGUUUCCUCCUGUUAACUCAACAGCUCGCAGUCAAG | 0.0294
GGUCACGUCUCAAUCAACUCUAUCCCAGGAGUUUCCUCCUGCAAUCUCAACAGCUCGCAGUCAAG | 0.0472
GGUCACGUCUCAAUCAACUCGUCUUCAGGAGUUUUCUCCUGCUUUUUCAACAGCUCGCAGUCAAG | -0.0581
GGUCACGUCUCAAUCAACUCUACUCCAGGAGUUUUCUCCUGUAAACUCAACAGCUCGCAGUCAAG | 0.0336
GGUCACGUCUCAAUCAACUCUUUCUCCAGGGAAAUCCCUGGUUUACUCAACAGCUCGCAGUCAAG | -0.0972
GGUCACGUCUCAAUCAACUCUUCUUCCAGGGAAAACCCUGGUUAAUUCAACAGCUCGCAGUCAAG | -0.2
GGUCACGUCUCAAUCAACUCAUUUCCAGGAGUUUUCUCCUGCUAUUUCAACAGCUCGCAGUCAAG | 0.0669
GGUCACGUCUCAAUCAACUCUCAAGAGGGGGGGAAAACCCCUUUGCCCUCAAAUUCAACAGCUCGCAGUCAAG | -0.398
GGUCACGUCUCAAUCAACUCAGAAGAGGGGGGGAAAACCCCUUUGCCCUCACAAUCAACAGCUCGCAGUCAAG | -0.106
GGUCACGUCUCAAUCAACUCACAAGAGGGGGGGAAAACCCCUUUGCCCUCGUCAUCAACAGCUCGCAGUCAAG | 0.00619
GGUCACGUCUCAAUCAACUCAGUUCCAGGAGUUUCCUCCUGCUUAUUCAACAGCUCGCAGUCAAG | 0.0333
GGUCACGUCUCAAUCAACUCAUUUCCAGGAGUUUACUCCUGCAUUCUCAACAGCUCGCAGUCAAG | 0.00418
